# Some of the results follow. Values were computed here from the reads of four pooled replicates and scatter widely.
# Biological target: T1, Pho4 (S. cerevisiae) (UniProt P07270)
# T1 sequence: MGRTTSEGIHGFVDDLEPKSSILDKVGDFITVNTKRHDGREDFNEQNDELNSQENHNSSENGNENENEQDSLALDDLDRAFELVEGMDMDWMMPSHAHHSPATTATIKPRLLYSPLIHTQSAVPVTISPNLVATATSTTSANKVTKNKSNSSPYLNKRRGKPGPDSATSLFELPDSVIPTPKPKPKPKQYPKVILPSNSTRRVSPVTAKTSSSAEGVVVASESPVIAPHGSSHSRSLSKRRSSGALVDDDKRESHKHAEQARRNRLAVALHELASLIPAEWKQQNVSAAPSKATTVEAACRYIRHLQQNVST
# Test: relative binding free energy (BET-seq); higher = weaker binding
# Details: reference: library average
row,Sequence,relative binding free energy [kcal/mol]
1,AATGGCACGTGGAGTT,-0.16
2,GGGCTCACGTGTGTAA,0.21
3,TATCTCACGTGGTTAG,0.08
4,TTTCTCACGTGAATAG,0.34
5,ATGGACACGTGTTGCT,0.09
6,GTCAACACGTGTGAGG,0.19
7,AAAGACACGTGGGTTA,-0.04
8,GGTGACACGTGTGTTC,0
9,AGGGCCACGTGATTGA,0.14
10,GTATACACGTGAGGGG,0.32
11,GATTGCACGTGTGCAT,0.24
12,AGTTTCACGTGTGTCC,0.44
13,TACGTCACGTGGGTGC,-0.08
14,GGGTCCACGTGTTGGC,0.1
15,GGTAGCACGTGCAGGA,0.11
16,GAGTGCACGTGGTATA,0.04
17,AGTGCCACGTGAGGCT,0.15
18,GGAATCACGTGTGCTG,0.04
19,TAAGGCACGTGGCAGG,-0.07
20,GTTATCACGTGCGTTT,0.15
21,AGGATCACGTGATTAT,0.35
22,GTATCCACGTGGGATG,0.07
23,TTTTGCACGTGGTGGA,0.09

row,Sequence,relative binding free energy [kcal/mol]
1,GGGAACACGTGGGATT,0.03
2,TAGGGCACGTGGAAAG,0.02
3,GCAGCCACGTGGTGGG,-0.11
4,TGAGTCACGTGGACGT,0.06
5,AGTAACACGTGTAGTG,-0.12
6,GGTGTCACGTGCGAGA,0.17
7,GGCTGCACGTGTTTAG,0
8,GCTGTCACGTGATAGA,0.38
9,TTGTGCACGTGCTTAG,0.02
10,GTGGACACGTGCATGG,-0.06
11,CTATACACGTGTATGT,-0.06
12,GGTAGCACGTGTTGGA,-0.17
13,GCGACCACGTGGGGGT,-0.3
14,AGATGCACGTGAGTGT,0.17
15,TTTTTCACGTGATTCT,0.29
16,TCAGGCACGTGGGAGG,-0.16
17,TTGTTCACGTGAGGAC,0.37
18,TAATGCACGTGTGTAA,0.05
19,GTTTGCACGTGGTACG,-0.08
20,GGTTGCACGTGCGGGA,-0.09
21,AATATCACGTGGGTCT,-0.09
22,GGTGGCACGTGTATCG,0.06
23,TGGGGCACGTGGATCG,-0.02

row,Sequence,relative binding free energy [kcal/mol]
1,GGGGGCACGTGGTACA,-0.33
2,GCTTGCACGTGTGATG,0.13
3,TGGGGCACGTGTGATC,0.06
4,GATCGCACGTGGGGGG,-0.05
5,TGCGGCACGTGAGACG,0.14
6,GAGAGCACGTGTTTGG,-0.09
7,GGGCTCACGTGGAGTG,0.23
8,CGTGTCACGTGCTTGT,0.03
9,ACTGTCACGTGGTATA,0.05
10,ATCTTCACGTGGTTCT,0.3
11,CGTGACACGTGGGTCG,-0.08
12,GGTTGCACGTGTACGT,0.09
13,GTGAGCACGTGCGGTG,-0.08
14,AGACGCACGTGGTAAT,0.11
15,GGCGTCACGTGGTGTA,0.02
16,TAAAGCACGTGGAGTG,-0.12
17,CTCGGCACGTGAGGGT,0.04
18,AAATGCACGTGCGTTG,-0.08
19,GGATGCACGTGTTAGA,-0.05
20,AGGATCACGTGTCGGG,0.08
21,AGCGTCACGTGTGGAG,0.15
22,ATCATCACGTGATGTG,0.26
23,GGGGTCACGTGTGTGA,0.14

row,Sequence,relative binding free energy [kcal/mol]
1,ATGTGCACGTGCGAGA,0.07
2,TAGGTCACGTGTAAGC,0.24
3,AGGTGCACGTGGGTTT,-0.11
4,GAAAGCACGTGTTTTG,-0.05
5,GGCCACACGTGTTGGG,0.15
6,GTTCGCACGTGGAGTG,-0.05
7,GGTGTCACGTGCAGAG,0.06
8,TTGCGCACGTGGCAGG,-0.23
9,TCGCTCACGTGGTAGG,0.12
10,AGGGACACGTGAGGTC,0.29
11,TGGATCACGTGTAATC,0.35
12,CAGGACACGTGGGGTA,-0.2
13,AATGGCACGTGAGATG,0.23
14,TTGGTCACGTGTCTGA,0.04
15,TGCTGCACGTGTACTT,0.07
16,CGGGGCACGTGGGGGC,-0.29
17,ATGTACACGTGATTGC,0.17
18,TTACTCACGTGTGTGT,0.21
19,TTAAGCACGTGGATAA,-0.11
20,GATTTCACGTGATTGT,0.33
21,TTTATCACGTGTTGAG,0.24
22,TTATTCACGTGTGTCG,0.31
23,ACAGGCACGTGAGTGT,0.05

row,Sequence,relative binding free energy [kcal/mol]
1,GGGTGCACGTGTTGCC,0.12
2,GAGAGCACGTGGGGCA,-0.19
3,TTCGCCACGTGTTGGT,0
4,ATGCGCACGTGGATGT,-0.14
5,TCATTCACGTGTGTGA,0.14
6,GGTTACACGTGTAGTT,0.15
7,TAGGTCACGTGAATGT,0.25
8,TGTCCCACGTGGTGGT,-0.38
9,TAGCACACGTGTGAGG,0.05
10,TGGGGCACGTGCTGCG,-0.2
11,GCGGGCACGTGTATAG,-0.06
12,TTGGTCACGTGGGTGC,-0.03
13,TTGGTCACGTGGTATG,0.09
14,AATGTCACGTGGTCAG,-0.03
15,AGTTTCACGTGTGTGG,0.15
16,TCTGTCACGTGGGGAT,-0.01
17,ATAGTCACGTGTTGAT,0.04
18,GTTGGCACGTGCGTCT,-0.06
19,GAGTGCACGTGGTGTC,-0.06
20,ATTTTCACGTGAGATA,0.43
21,AGTCGCACGTGATGGG,-0.03
22,TTGTGCACGTGCTAAT,-0.02
23,ATTCTCACGTGTGGTA,0.22

# Source: the BET-seq Pho4 binding data (Le et al. 2018)
